The other results are listed elsewhere or left out. No stated cut-off is given here; in the data, active = 3.2 or more and inactive = the rest. Most of these values are background signal.
B1: RNASEH2A_Y210_D205E_YF (peptide)
chain: EFGSGYPNDPK
B2: RNASEH2A_Y206_D205E_YF (peptide)
chain: DLDTEYGSGFP
B3: RPE65_Y368_P363T (peptide)
chain: TEVRRYVLPLN
B4: RP9_Y142_H137L (peptide)
chain: LEDPMYDIIRD
B5: RS1_Y177_R182C (peptide)
chain: NNRVFYGNSDC
B6: RPGRIP1_Y846_A841T (peptide)
chain: TSNNPYFRDQA
B7: RPL35A_Y34 (peptide)
chain: KIEGVYARDET
B8: RP1_Y199 (peptide)
chain: PVVKLYATDGR
B9: RPS6KA3_Y488_Y483C_YF (peptide)
chain: CDDGKYVFVVT
B10: RSPO4_Y112 (peptide)
chain: CKRQFYLYKGK
B11: RPGRIP1L_Y448_L447S (peptide)
chain: KRIKSYNQEND
B12: RSPO4_Y112_YF (peptide)
chain: CKRQFYLFKGK
B13: ROR2_Y824 (peptide)
chain: VPVNGYQPVPA
B14: RPGRIP1L_Y196_S199G (peptide)
chain: PMFTKYGNGLL
B15: ROR2_Y645_D644N (peptide)
chain: VYAANYYKLLG
B16: RPL21_Y30_YF (peptide)
chain: VPLATYMRIFK
B17: RNASE3_Y134_G130R (peptide)
chain: PRRRFYVVACD
B18: RPGRIP1_Y826 (peptide)
chain: SPYAVYRFFTF
B19: RPS8_Y113_R110G (peptide)
chain: PYGQWYESHYA
B20: RNASEH2A_Y206 (peptide)
chain: DLDTDYGSGYP
B21: RPL21_Y30 (peptide)
chain: VPLATYMRIYK
B22: RNASEH2A_Y206_L202S_YF (peptide)
chain: DSDTDYGSGFP
B23: RNF175_Y155 (peptide)
chain: FGVVGYLAIMF
B24: ROCK2_Y1197 (peptide)
chain: EQSNPYMVLDI
B25: RPGRIP1_Y826_YF (peptide)
chain: SPFAVYRFFTF
B26: ROS1_Y2227 (peptide)
chain: FLNSIYKSRDE
B27: RPS19_Y54_R56Q (peptide)
chain: DENWFYTQAAS
B28: RPE65_Y368 (peptide)
chain: PEVRRYVLPLN
B29: RYR1_Y2426_A2421P (peptide)
chain: PIMSFYAALID
B30: RS1_Y165_YF (peptide)
chain: RLNWIYFKDQT
B31: RXRA_Y397 (peptide)
chain: LREKVYASLEA
B32: RPS19_Y54_W52R (peptide)
chain: DENRFYTRAAS
B33: RXRA_Y397_A398V (peptide)
chain: LREKVYVSLEA
B34: RPS8_Y109 (peptide)
chain: IDSTPYRQWYE
B35: RPE65_Y368_Y368C (peptide)
chain: PEVRRCVLPLN
B36: RPS19_Y54_W52C (peptide)
chain: DENCFYTRAAS
B37: RS1_Y166 (peptide)
chain: LNWIYYKDQTG

Target: SHP2 C-SH2 domain E139D
Assay: enrichment score (SH2-bound / input frequency) (ratio); bacterial display of known human phosphotyrosine sites (pTyr-Var adds point mutants) read by sequencing; higher = stronger binding; tyrosines were phosphorylated by kinases first
Conditions: peptide library: pTyr-Var
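Further: displayed peptides selected on beads carrying the immobilized SH2 domain, with library peptides lacking any tyrosine serving as negative controls.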

Binder | enrichment score
B1 | inactive: 0.639
B2 | inactive: 0.679
B3 | inactive: 0.86
B4 | inactive: 0.596
B5 | inactive: 0.84
B6 | inactive: 0.58
B7 | inactive: 0.595
B8 | inactive: 0.902
B9 | inactive: 0.581
B10 | inactive: 0.882
B11 | inactive: 0.746
B12 | inactive: 1.34
B13 | inactive: 0.516
B14 | inactive: 1.34
B15 | inactive: 0.793
B16 | inactive: 0.543
B17 | inactive: 0.194
B18 | inactive: 0.469
B19 | inactive: 0.97

Binder | enrichment score
B20 | inactive: 0.472
B21 | inactive: 0.225
B22 | inactive: 0.44
B23 | inactive: 2.14
B24 | inactive: 0.758
B25 | inactive: 0.592
B26 | inactive: 1.4
B27 | inactive: 0.883
B28 | inactive: 1.1
B29 | inactive: 0.824
B30 | inactive: 2.15
B31 | inactive: 0.93
B32 | inactive: 0.637
B33 | inactive: 1.08
B34 | inactive: 0.695
B35 | inactive: 1.01
B36 | inactive: 0.747
B37 | active: 3.73

Target: SHP2 C-SH2 domain wild-type
Assay: as above
Conditions: peptide library: pTyr-Var

Binder | enrichment score
B1 | inactive: 0.676
B2 | inactive: 0.491
B3 | inactive: 0.987
B4 | inactive: 0.705
B5 | inactive: 0.737
B6 | inactive: 0.51
B7 | inactive: 0.544
B8 | inactive: 1.06
B9 | inactive: 0.925
B10 | inactive: 0.959
B11 | inactive: 0.591
B12 | inactive: 1.17
B13 | inactive: 0.636
B14 | inactive: 1.16
B15 | inactive: 0.746
B16 | inactive: 0.548
B17 | inactive: 0.183
B18 | inactive: 0.794
B19 | inactive: 0.906

Binder | enrichment score
B20 | inactive: 0.518
B21 | inactive: 0.317
B22 | inactive: 0.442
B23 | inactive: 2.12
B24 | inactive: 0.865
B25 | inactive: 0.499
B26 | inactive: 1.39
B27 | inactive: 0.807
B28 | inactive: 1.35
B29 | inactive: 1.08
B30 | inactive: 1.73
B31 | inactive: 1.11
B32 | inactive: 0.715
B33 | inactive: 0.967
B34 | inactive: 0.66
B35 | inactive: 1.35
B36 | inactive: 1.11
B37 | inactive: 2.84

Target: SHP2 N-SH2 domain L43F
Assay: as above
Conditions: peptide library: pTyr-Var

Binder | enrichment score
B1 | inactive: 0.469
B2 | inactive: 0.639
B3 | inactive: 0.776
B4 | inactive: 0.705
B5 | inactive: 0.727
B6 | inactive: 0.41
B7 | inactive: 0.594
B8 | inactive: 0.79
B9 | inactive: 0.707
B10 | inactive: 0.716
B11 | inactive: 0.76
B12 | inactive: 1.35
B13 | inactive: 0.639
B14 | inactive: 0.991
B15 | inactive: 0.669
B16 | inactive: 0.388
B17 | inactive: 0.209
B18 | inactive: 0.626
B19 | inactive: 0.656

Binder | enrichment score
B20 | inactive: 0.621
B21 | inactive: 0.357
B22 | inactive: 0.573
B23 | inactive: 2.14
B24 | inactive: 0.735
B25 | inactive: 0.54
B26 | inactive: 1.43
B27 | inactive: 0.799
B28 | inactive: 1.36
B29 | inactive: 1.12
B30 | inactive: 1.98
B31 | inactive: 0.977
B32 | inactive: 0.699
B33 | inactive: 1.1
B34 | inactive: 0.803
B35 | inactive: 1.05
B36 | inactive: 0.691
B37 | active: 3.4

Target: SHP2 N-SH2 domain T42A
Assay: as above
Conditions: peptide library: pTyr-Var

Binder | enrichment score
B1 | inactive: 0.483
B2 | inactive: 0.588
B3 | inactive: 0.693
B4 | inactive: 0.619
B5 | inactive: 0.766
B6 | inactive: 0.567
B7 | inactive: 0.543
B8 | inactive: 0.766
B9 | inactive: 0.737
B10 | inactive: 0.657
B11 | inactive: 0.966
B12 | inactive: 1.17
B13 | inactive: 0.475
B14 | inactive: 1.18
B15 | inactive: 0.727
B16 | inactive: 0.367
B17 | inactive: 0.268
B18 | inactive: 0.483
B19 | inactive: 1

Binder | enrichment score
B20 | inactive: 0.356
B21 | inactive: 0.277
B22 | inactive: 0.611
B23 | inactive: 3
B24 | inactive: 1.29
B25 | inactive: 0.512
B26 | inactive: 0.967
B27 | inactive: 0.71
B28 | inactive: 1.08
B29 | inactive: 1.03
B30 | inactive: 1.61
B31 | inactive: 1.06
B32 | inactive: 0.627
B33 | inactive: 1.36
B34 | inactive: 0.691
B35 | inactive: 0.931
B36 | inactive: 0.603
B37 | active: 3.57

Target: SHP2 N-SH2 domain T52S
Assay: as above
Conditions: peptide library: pTyr-Var

Binder | enrichment score
B1 | inactive: 0.475
B2 | inactive: 0.626
B3 | inactive: 0.645
B4 | inactive: 0.851
B5 | inactive: 0.686
B6 | inactive: 0.489
B7 | inactive: 0.55
B8 | inactive: 0.89
B9 | inactive: 0.641
B10 | inactive: 0.838
B11 | inactive: 0.617
B12 | inactive: 1.29
B13 | inactive: 0.609
B14 | inactive: 1.06
B15 | inactive: 0.68
B16 | inactive: 0.453
B17 | inactive: 0.259
B18 | inactive: 0.523
B19 | inactive: 0.789

Binder | enrichment score
B20 | inactive: 0.544
B21 | inactive: 0.377
B22 | inactive: 0.381
B23 | inactive: 1.8
B24 | inactive: 0.72
B25 | inactive: 0.546
B26 | inactive: 1.65
B27 | inactive: 0.777
B28 | inactive: 1.09
B29 | inactive: 1.07
B30 | inactive: 2.26
B31 | inactive: 0.665
B32 | inactive: 0.726
B33 | inactive: 0.927
B34 | inactive: 0.537
B35 | inactive: 0.979
B36 | inactive: 0.729
B37 | active: 3.87

Target: SHP2 N-SH2 domain wild-type
Assay: as above
Conditions: peptide library: pTyr-Var

Binder | enrichment score
B1 | inactive: 0.792
B2 | inactive: 0.519
B3 | inactive: 0.919
B4 | inactive: 0.658
B5 | inactive: 0.805
B6 | inactive: 0.681
B7 | inactive: 0.772
B8 | inactive: 0.982
B9 | inactive: 0.974
B10 | inactive: 0.878
B11 | inactive: 0.528
B12 | inactive: 1.3
B13 | inactive: 0.881
B14 | inactive: 0.828
B15 | inactive: 0.602
B16 | inactive: 0.433
B17 | inactive: 0.26
B18 | inactive: 0.738
B19 | inactive: 1.46

Binder | enrichment score
B20 | inactive: 0.448
B21 | inactive: 0.33
B22 | inactive: 0.481
B23 | inactive: 2.44
B24 | inactive: 0.924
B25 | inactive: 0.489
B26 | inactive: 1.27
B27 | inactive: 1.02
B28 | inactive: 1.46
B29 | inactive: 1.06
B30 | inactive: 1.82
B31 | inactive: 1.17
B32 | inactive: 0.658
B33 | inactive: 1.28
B34 | inactive: 0.88
B35 | inactive: 1.2
B36 | inactive: 0.614
B37 | inactive: 2.75
